Assay results reported in PubChem BioAssay (NCATS).
This list was built around the results that the source calls inconclusive (neither active nor inactive); the mix of calls is not that of the screen. Potencies of inconclusive entries are doubtful fits and often do not repeat. Active and inactive are the calls of the source. Calls come from the whole dose curve; as a rule, active = well fitted inhibition curve with a large enough effect; inconclusive = small, poorly fitted or top-dose-only effect; inactive = flat fitted curve, though single readings scatter.

system: HEK293; test: Cytotoxic Profiling of Annotated Libraries Using Quantitative High-Throughput Screening (AID 1296008); details: Five cell lines viability, CellTiter-Glo ATP luminescence, 48-72 h; max response: hits give low values; note: nearly all actives have a fitted effect of over 60% in size
How it was run: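 Compounds were pin-transferred onto cells and incubated 48 or 72 hr at 37 degree Celsius, 95% humidity. CellTiter-Glo was added, plates sat 10 min at room temperature, then ATP-coupled luminescence was imaged as the viability read-out.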
% is set by controls: 0 for no effect and ±100 for the full control effect; potency is the fitted concentration of half-maximal effect; tags give direction and shape of the fitted curve.

Row | Compound | Potency | max response
1 | CC(C)=CCN1CC[C@@]2(C)c3cc(O)ccc3C[C@@H]1[C@@H]2C | inconclusive: 67.2 µM [inhibitor, single point] | 
2 | CC(C)[C@H](NC(=O)c1nn(Cc2ccc(F)cc2)c2ccccc12)C(N)=O |  | inactive: -11.8%
3 | O=C1OC(CCN2CCCCC2)OC1(c1ccccc1)c1ccccc1 (stereo not drawn) | inconclusive: 23.7 µM [inhibitor, single point] | 
